Hit rate of the full screen: of about 410,000 compounds, about 7,200 (1.8%) were called active. This list was built around the results that the source calls inconclusive (neither active nor inactive); the mix of calls is not that of the screen. The call rests on the fitted dose curve; in most records, active means well fitted activation curve with a large enough effect; inconclusive means small, poorly fitted or top-dose-only effect, or another doubt; inactive means no such curve, though single readings can be large or run the other way. No potency is given beside an inconclusive call; the fits are too rough.
assay: qHTS of TDP-43 Inhibitors; details: TDP-43 expressing yeast growth rescue, BacTiter-Glo, 24 h; growth rescue (activation): at 46.1 µM (top of the series) unless noted; further: nearly all actives have a fitted effect of over 50% in size; on growth rescue (activation): % of control where 0% means no effect
In short: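 Yeast cells expressing TDP-43 under galactose induction are exposed to compounds for 24 hr at 30 deg C. BacTiter-Glo luminescence measures growth, so protective compounds score as activators.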
Potency means the concentration at half of the fitted maximal effect; tags describe the fitted curve by direction and shape.

SMILES | Potency | growth rescue (activation)
CCOc1ccc(-c2noc(CCC(=O)O)n2)cc1 | active: 31.6 µM | 
O=C1CCN(Cc2ccccc2)C=C1c1ccc2ccccc2c1 | inconclusive [activator, partial curve] | 
CCc1ccc(-n2c(=O)c3ccccc3n(Cc3ccccc3C#N)c2=O)cc1 | inconclusive [activator, partial curve, poor fit] | 
CN(Cc1ccccc1)C(=O)c1ccccc1-c1ccccc1 | inconclusive [activator, single point] | 
COc1cc2oc3ccccc3c(=O)c2cc1OC | active: 15.8 µM | 
CCc1ccc(C(=O)c2cnc3ccc(F)cc3c2S(=O)(=O)c2ccccc2)cc1 | inconclusive [activator, single point] | 
Oc1ccccc1C=NNC(=S)NC1CC2C=CC1C2 (configuration not stated) | active: 12.6 µM | 
CC1Cc2cc(S(=O)(=O)NCCc3ccc(Cl)cc3)ccc2N1C(=O)C1CCC1 (configuration not stated) | active: 17.8 µM | 
CC(=O)Nc1cccc(-c2nc3ccccc3n2C(C(=O)NC(C)(C)C)C2CC2)c1 (configuration not stated) | inconclusive [activator, full curve, poor fit] | 
CCC(C(=O)OCC(=O)N1CCN(S(=O)(=O)c2ccc(C)cc2C)CC1)c1ccccc1 (configuration not stated) | inconclusive [activator, single point] | 
CCCCn1c(SCC(=O)OCC)nc2c(sc(=S)n2-c2ccccc2OC)c1=O | active: 12.6 µM | 
CC(C)(C)/C(COc1ccccc1[N+](=O)[O-])=N/O | inconclusive [activator, partial curve] | 
COc1ccc(OCC(=O)N2CCC(c3nc4ccccc4s3)CC2)cc1 | inconclusive [activator, single point] | 
CCCNC(=O)C1(C)CCCN(C(=O)c2ccccc2F)C1 (configuration not stated) | inconclusive [activator, full curve] | 
Cc1csc(NC(=O)C2CCCC2)n1 | inconclusive [activator, partial curve, poor fit] | 
C=CCCCCCCCCc1nc(=S)[nH][nH]1 | inconclusive [activator, single point] | 
COc1cc(NC(=O)c2cccs2)c(OC)cc1NC(=O)c1cccs1 |  | inactive: 16.4%
CC(C)(C)n1nnnc1C(c1ccccc1)N1CCN(CCN2CCOCC2)CC1 (configuration not stated) | inconclusive [activator, full curve] | 
COCCCNC(=O)Cc1c(C)c2cc3c(cc2oc1=O)OC(C)(C)CC3 |  | inactive: 21.7%
COc1ccc(-c2cc(CCC(=O)N3CCN(c4cc(C)ccc4C)CC3)on2)cc1 | inconclusive [activator, single point] | 
OCCN(CCO)c1ccc(C(c2ccccc2Cl)c2ccc(N(CCO)CCO)cc2Cl)c(Cl)c1 | inconclusive [activator, partial curve, poor fit] | 
CCOC(=O)c1cccc(NC(=O)c2cnc3ccccc3n2)c1 | inconclusive [activator, single point] | 
Clc1ccc2c(c1)C(N1CCNCC1)=Nc1ccccc1O2 | inconclusive [activator, partial curve] | 
Cc1cccc(N2CCN(C(=O)C3CCCN(S(=O)(=O)c4ccc5c(c4)oc(=O)n5C)C3)CC2)c1C (configuration not stated) |  | inactive: 19.7%

SMILES | Potency | growth rescue (activation)
CCn1c(SCc2ccc(C(=O)Nc3nccs3)cc2)nnc1-c1ccc(NC(C)=O)cc1 |  | inactive: 0.566%
O=C(c1ccccc1)C(CCc1ccccn1)CCc1ccccn1 |  | inactive: 3.88%
Cc1ccc(N(Cc2ccc([N+](=O)[O-])cc2)C(=O)c2ccco2)cc1C | inconclusive [activator, single point] | 
CCOC(=O)Oc1ccc2c(c1)C(C)=CC(C)(C)N2C(=O)OCC |  | inactive: -12.1%
O=C(COc1ccc(Cl)cc1)NCCC1=CCCCC1 | inconclusive [activator, single point] | 
O=C(NCCCOc1ccc([N+](=O)[O-])cc1Cl)OCc1ccccc1 | active: 15.8 µM | 
CCOC(=O)N1CCN(C(=O)C[C@@H]2C[C@@]3(C(=O)OCC)CCC=C3N(Cc3cccc4ccccc34)C2=O)CC1 | active: 15.8 µM | 
COc1ccccc1-c1nc(C(N)=O)c2[nH]c(=O)n(-c3cccc(C)c3)c2n1 |  | inactive: -20.4%
O=C(Nc1ccc(Br)cc1)C1CCN(C(=O)c2ccco2)CC1 | inconclusive [activator, single point] | 
O=C(O)c1ccc(N/N=C/c2ccnc3ccccc23)cc1 |  | inactive: -38.6%
COc1cc(OC)cc(C(=O)NCc2ccc3c(c2)OCO3)c1 | inconclusive [activator, partial curve] | 
O=C(NC1=NCCS1)c1sc2cc(F)ccc2c1Cl | inconclusive [activator, partial curve] | 
Cc1cccc(-n2cc(-c3ccccc3)c3c(N4CCC(C)CC4)ncnc32)c1 | inconclusive [activator, partial curve] | 
COc1ccc(-c2nc3ccc(Br)cn3c2Cc2cccc(F)c2)cc1OC | active: 14.1 µM | 
C/C(=N\Nc1ccccc1C)c1cccnc1 | inconclusive [activator, partial curve] | 
CCOC(=O)[C@@H](NC(=O)CC[C@H]1O[C@@H](n2cc(C)c(=O)[nH]c2=O)C[C@@H]1O)C(C)C | inconclusive [activator, single point] | 
CCN(CC)C(=O)C1CCCN(c2ncnc3c2cnn3-c2cccc(C)c2)C1 (configuration not stated) | inconclusive [activator, single point] | 
CC1(C)C=Cc2c(c3c(c4c(=O)c(-c5ccc(O)cc5)coc24)OC(C)(C)CC3)O1 | inconclusive [activator, full curve] | 
Cc1ccc(C=Nc2ccccc2C(N)=O)o1 |  | inactive: 0.745%
COc1ccccc1Cc1c(-c2ccc(Cl)cc2)nc2ccc(Br)cn12 | inconclusive [activator, single point] | 
COc1cc(-c2cc(C(=O)N3CCCCCC3)c3ccccc3n2)cc(OC)c1OC | inconclusive [activator, partial curve] | 
CCC(Sc1nc2ncccc2[nH]1)C(=O)Nc1cccc(OC)c1 (configuration not stated) |  | inactive: 20.3%
CCc1nc(Nc2ccccc2)c2nnn(Cc3ccccc3)c2n1 | inconclusive [activator, partial curve] | 
O=C(c1ccc(N2CCCC2=O)cc1)N1CCN(c2ccccc2Cl)CC1 | active: 15.8 µM | 

SMILES | Potency | growth rescue (activation)
NC(=S)N=Nc1ccc(O)cc1 | active: 12.6 µM | 
COc1cccc2c1C(=O)C[C@]1(CCCC[C@@H]1C)O2 | inconclusive [activator, partial curve] | 
Cc1cccc(Nc2nc(-c3cccs3)cs2)n1 | inconclusive [activator, partial curve] | 
O=C(Nc1ccc(Cl)cc1)c1ccco1 | inconclusive [activator, partial curve] | 
Nc1nc(N)c2[nH]c(-c3ccccc3)nc2n1 | active: 12.6 µM | 
Cc1cc(S(=O)(=O)ON2C(=O)c3ccccc3C2=O)ccc1F | inconclusive [activator, single point] | 
CCOc1ccc(C(c2c(O)cc(C)n(CCOC)c2=O)N2CCN(c3ccccc3)CC2)cc1 (configuration not stated) |  | inactive: 25%
CCOc1cc(C(=S)N2CCCC2)ccc1O | inconclusive [activator, single point] | 
S=C(NCCc1ccccc1)Nc1ccc(N2CCCCC2)cc1 |  | inactive: 29.6%
COc1ccc(C(=O)NCCn2cc(SCC(=O)Nc3ccc(C)cc3)c3ccccc32)cc1 | inconclusive [activator, single point] | 
CCn1cc(C(=O)OCC(=O)OC2CC(C)CCC2C(C)C)c(=O)c2ccc(C)nc21 (configuration not stated) | active: 22.4 µM | 
NCCCCC(=O)O | inconclusive [activator, partial curve, poor fit] | 
COc1ccc(C)cc1NC(=O)c1ccc2c(=O)n3c(nc2c1)CCCCC3 | inconclusive [activator, single point] | 
COc1ccc(-c2nnc(SCC(=O)Nc3ccccc3OC)o2)cc1 |  | inconclusive: 37.2% [activator]
Cn1c(=O)c2c(nc(Br)n2CC(=O)C23CC4CC(CC(C4)C2)C3)n(C)c1=O | inconclusive [activator, single point] | 
COc1ccc(CNC(=O)Cn2ncc3c4ccccc4n(Cc4cccc(Cl)c4)c3c2=O)cc1 |  | inactive: 0% [at 9.22 µM]
CN1CCc2c(sc3c2C(=O)NC(c2ccc(OC(=O)c4ccccc4)cc2)N3)C1 (configuration not stated) |  | inactive: 26.6%
COc1ccccc1CNC(=O)C1CCCN(C(=O)c2cnn(-c3ccc(F)cc3)c2-n2cccc2)C1 (configuration not stated) |  | inactive: 0%
Cc1cccc(NC(=O)Cc2ccc(Br)cc2)n1 | inconclusive [activator, single point] | 
Nc1cc(-c2cccc(Br)c2)nn1Cc1ccccc1 | inconclusive [activator, partial curve] | 
Cc1ccc(Nc2nnc(SCC(O)=C(C#N)c3nc4ccccc4[nH]3)s2)c(C)c1 |  | inactive: -2.68%
COc1cc(C2NC(=O)c3c(sc4c3CCN(C)C4)N2)cc(Br)c1OC(=O)c1ccc(C)cc1 (configuration not stated) | inconclusive [activator, partial curve, poor fit] | 
O=S(=O)(/N=S1\CC=CCN1S(=O)(=O)c1ccccc1)c1ccccc1 (configuration not stated) | inconclusive [activator, single point] | 
COc1ccc(CCNC(=O)CSc2nc3ccccc3o2)cc1 | inconclusive [activator, partial curve] | 
